Test results reported in US11787780B2 (CORCEPT THERAPEUTICS INCORPORATED, priority 2020, dated 2023).
pKi: −log10 of the molar value. At least one structure is not confirmed: it was looked up by name or label, or the drawing left a doubt.

Each molecule was assayed on induction of TAT by dexamethasone in HepG2 cells (assay: Hep G2 TAT assay (inhibition of dexamethasone-induced TAT)). Conditions: challenge of 100 nM dexamethasone, IC50 converted to Ki by Cheng and Prusoff equation.
Format: cell-based, human
Experimental: Glucocorticoid mediated activation of TAT occurs by transactivation of glucocorticoid response elements in the TAT promoter by glucocorticoid receptor-agonist complex. The following protocol describes an assay for measuring induction of TAT by dexamethasone in HepG2 cells (a human liver hepatocellular carcinoma cell line; ECACC, UK).
TAT activity was measured as outlined in the literature by A. Ah et al., J. Med. Chem., 2004, 47, 2441-2452.
HepG2 cells were cultured using MEME media supplemented with 10% (v/v) foetal bovine serum; 2 mM L-glutamine and 1% (v/v) NEAA at 37° C., 5%/95% (v/v) CO2/air. The HepG2 cells were counted and adjusted to yield a density of 0.125×10^6 cells/ml in RPMI 1640 without phenol red, 10% (v/v) charcoal stripped FBS, 2 mM L-glutamine and seeded at 25,000 cells/well in 200 μl into 96 well, sterile, tissue culture micro titre plates, and incubated at 37° C., 5% CO2 for 24 hours
Growth media was removed and replaced with assay media {RPMI 1640 without phenol red, 2 mM L-glutamine+10 μM forskolin}. Test compounds were screened against a challenge of 100 nM dexamethasone. Compounds were serially half log diluted in 100% (v/v) dimethylsulphoxide from a 10 mM stock.
Test compounds were pre-incubated with cells in micro-titre plates for 30 minutes at 37° C., 5/95 (v/v) CO2/air, before the addition of 100 nM dexamethasone and then subsequently for 20 hours to allow optimal TAT induction.
HepG2 cells were then lysed with 30 μl of cell lysis buffer containing a protease inhibitor cocktail for 15 minutes at 4° C. […] After 2 hours incubation at 37° C. the reaction was terminated by the addition of 15 μl of 10M aqueous potassium hydroxide solution, and the plates incubated for a further 30 minutes at 37° C. The TAT activity product was measured by absorbance at λ 340 nm.
[compound] and fitting the data to a 4 parameter logistic equation. IC50 values were converted to Ki (equilibrium dissociation constant) using the Cheng and Prusoff equation, assuming the antagonists were competitive inhibitors with respect to dexamethasone.

Q: With `Cc1cc2c(cnn2-c2ccc(F)cc2)cc1C1(Cc2ccccc2)CCN(C(=O)CCn2cncn2)C1` (centres unmarked) [Example 208, 1-(3-benzyl-3-(1-(4-fluorophenyl)-6-methyl-1H-indazol-5-yl)pyrrolidin-1-yl)-3-(1H-1,2,4-triazol-1-yl)propan-1-one] as the molecule, how does the pKi read?
A: 6.82

Q: How did the pKi turn out when `CCCn1cc(S(=O)(=O)N2CCC(Cc3ccccn3)(c3cc4cnn(-c5ccc(F)cc5)c4cc3C)C2)cn1` (centres unmarked) [Example 152] was run?
A: 7.20

Q: `Cc1cc2c(cnn2-c2ccc(F)cc2)cc1C1(Cc2ccccc2)CCN(C(=O)C2CCN(C)CC2)C1` (centres unmarked) [Example 207, (3-benzyl-3-(1-(4-fluorophenyl)-6-methyl-1H-indazol-5-yl)pyrrolidin-1-yl)(1-methylpiperidin-4-yl)methanone] was tested. Which pKi did it give?
A: 6.23

Q: `Cn1cc(S(=O)(=O)C2CCN(c3ccc4c(cnn4-c4ccc(F)cc4)c3)CC2)cn1` [Example 33, 1-(4-fluorophenyl)-5-(4-((1-methyl-1H-pyrazol-4-yl)sulfonyl)piperidin-1-yl)-1H-indazole] was tested. Which pKi did it give?
A: 6.18

Q: With `Cc1cc2c(cnn2-c2ccc(F)cc2)cc1C1(Cc2ccc(F)cc2)CCN(S(=O)(=O)c2cnn(C)c2)C1` (centres unmarked) [Example 182] as the molecule, how does the pKi read?
A: 7.62

Q: `Cc1cc2c(cnn2-c2ccc(F)cc2)cc1C1(Cc2ccccc2)CC(O)N(Cc2ccccc2)C1=O` (centres unmarked) [Example 336, 1,3-dibenzyl-3-(1-(4-fluorophenyl)-6-methyl-1H-indazol-5-yl)-5-hydroxypyrrolidin-2-one] was tested. Which pKi did it give?
A: 6.92

Q: `Cc1cc2c(cnn2-c2ccc(F)cc2)cc1C1(COCc2ccccc2)CCN(S(=O)(=O)c2cnn(C)c2)C1` (centres unmarked) [Example 341, 5-(3-((benzyloxy)methyl)-1-((1-methyl-1H-pyrazol-4-yl)sulfonyl)pyrrolidin-3-yl)-1-(4-fluorophenyl)-6-methyl-1H-indazole] was tested. Which pKi did it give?
A: 6.77

Q: With `Cc1nc(C(=O)N2CCC(Cc3ccccc3)(c3cc4cnn(-c5ccc(F)cc5)c4cc3C)C2)c(C)o1` (centres unmarked) [Example 204, (3-benzyl-3-(1-(4-fluorophenyl)-6-methyl-1H-indazol-5-yl)pyrrolidin-1-yl)(2,5-dimethyloxazol-4-yl)methanone] as the molecule, how does the pKi read?
A: 7.15

Q: With `Cc1cc2c(cnn2-c2ccc(F)cc2)cc1C1(Cc2ccccc2)CCN(C(=O)c2cnn3cccnc23)C1` (centres unmarked) [Example 205, (3-benzyl-3-(1-(4-fluorophenyl)-6-methyl-1H-indazol-5-yl)pyrrolidin-1-yl)(pyrazolo[1,5-a]pyrimidin-3-yl)methanone] as the molecule, how does the pKi read?
A: 6.96

Q: How did the pKi turn out when `Cc1cc2c(cnn2-c2ccc(=O)n(C)c2)cc1C1(Cc2ccccc2)CCN(S(=O)(=O)c2cnn(C(C)C)n2)C1` (centres unmarked) [Example 320, 5-(5-(3-benzyl-1-((2-isopropyl-2H-1,2,3-triazol-4-yl)sulfonyl)pyrrolidin-3-yl)-6-methyl-1H-indazol-1-yl)-1-methylpyridin-2(1H)-one] was run?
A: 7.34

Q: `Cc1cc2c(cnn2-c2ccc(F)cc2)cc1C1(Cc2ccccc2)CCN(C(=O)CC#N)C1` (centres unmarked) [Example 206, 3-(3-benzyl-3-(1-(4-fluorophenyl)-6-methyl-1H-indazol-5-yl)pyrrolidin-1-yl)-3-oxopropanenitrile] was tested. Which pKi did it give?
A: 7.23
